Assay results: PubChem BioAssay (NCATS)
Several values for one entry are separate records, joined by “and”; a condition that tells them apart may be missing. Equal values may be shown once. Inconclusive results, whose numbers are uncertain, are shown with a selection of clear calls. Potencies of inconclusive entries are doubtful fits and often do not repeat. Activity calls are given as the source filed them. The call rests on the fitted dose curve; in most records, active means well fitted cell-killing curve with a large enough effect; inconclusive means small, poorly fitted or top-dose-only effect, or effect the other way; inactive means no such curve, though single readings can be large or run the other way.

Assays:
[1] = Viability qHTS for spleen associated tyrosine kinase inhibitor (SYKi) naive MV4-11 cells (AID 1963823); details: MV4-11 AML viability, CellTiter-Glo luminescence, 72 h; series mostly up to 45 µM; further: nearly all actives have a fitted effect of over 40% in size
Outline: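 Compounds were dispensed acoustically onto plates, MV4-11 cells (SYKi-naive) added at 500 per well, and plates incubated 72 hr at 37 C. CellTiter-Glo was added and luminescence measured after 10 min.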

[2] = Viability qHTS for spleen associated tyrosine kinase inhibitor (SYKi) drug resistant MV4-11 cells (AID 1963824); details: SYKi-resistant MV4-11 viability, CellTiter-Glo, 72 h; series mostly up to 45 µM; further: nearly all actives have a fitted effect of over 35% in size
Outline: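 SYK-inhibitor-resistant MV4-11 AML cells were seeded at 500 per well onto compound and cultured 72 hours (37 °C, 5% CO2). CellTiter-Glo was then added, and after 10 min at room temperature, luminescence gave viability.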
Potency means the concentration at half of the fitted maximal effect; tags describe the fitted curve by direction and shape.

Row | Compound | Potency [1] | Potency [2]
1 | OC/C=C/c1ccc(O[C@@H]2O[C@H](CO)[C@@H](O)[C@H](O)[C@H]2O)cc1 | inactive | inactive
2 | Cc1nnc(-c2ccc3occ(-c4ccc(S(C)=O)cc4)c3c2)o1 (stereo not drawn) | inconclusive: 14.6 µM [cytotoxic, partial curve] | inconclusive: 16.4 µM [cytotoxic, single point]
3 | COc1cc(C(CO)CO[C@@H]2O[C@H](CO)[C@@H](O)[C@H](O)[C@H]2O)ccc1O (stereo partly drawn) | inactive | inactive
4 | COC1CCCC/C(C)=C/C2C=C(C)C(C)C3C(CC(C)C)NC(=O)C23C(=O)C1 (stereo not drawn) | inconclusive: 10 µM [cytotoxic, partial curve, poor fit] | inconclusive: 8.93 µM [cytotoxic, single point]
5 | CC1CCC2(C)C(CC(O)C(O)C23CO3)C1(C)CCC1=CC(=O)OC1O (stereo not drawn) | inconclusive: 12.8 µM [cytotoxic, single point] | inconclusive: 14.3 µM [cytotoxic, partial curve]
6 | COc1ccccc1Oc1ccc(N(Cc2cccnc2)S(=O)(=O)CC(F)(F)F)cc1 | inconclusive: 18.4 µM [cytotoxic, single point] | inconclusive: 18.4 µM [cytotoxic, single point]
7 | c1ccc(CNCCNCc2ccccc2)cc1 | inconclusive: 18.8 µM [cytotoxic, partial curve, poor fit] | inconclusive: 16.8 µM [cytotoxic, single point]
8 | CC(C)c1ccccc1OC(=O)NCCc1ccc2ccccc2c1 | inconclusive: 25.9 µM [cytotoxic, single point] | inconclusive: 18.4 µM [cytotoxic, single point]
9 | COc1cc(Nc2nc3ccccc3nc2NS(=O)(=O)c2cccc(NC(=O)c3ccc(C)c(OC)c3)c2)cc(OC)c1 | inconclusive: 10.3 µM [cytotoxic, partial curve, poor fit] | inconclusive: 23.1 µM [cytotoxic, single point]
10 | NC(=O)c1sc(-c2ccsc2)cc1N | inconclusive: 13 µM [cytotoxic, partial curve] | inconclusive: 23.1 µM [cytotoxic, single point]
11 | COC(=O)c1ccc2c(c1)nc(NC(=O)c1ccccc1)n2CCCc1ccccc1 | inconclusive: 0.0231 µM [cytotoxic, single point] | inactive
12 | NCCCCN(Cc1nc2ccccc2[nH]1)[C@H]1CCCc2cccnc21 | inconclusive: 10 µM [cytotoxic, partial curve] | inconclusive: 4.47 µM [cytotoxic, partial curve, poor fit]
13 | Nc1ccc(-c2ccnc(NCCCNC(=O)c3c(Cl)cccc3Cl)n2)cc1 | active: 1.3 µM | active: 1.3 µM
14 | COC(=O)C1=CO[C@@H](O[C@@H]2O[C@H](CO)[C@@H](O)[C@H](O)[C@H]2O)[C@H]2[C@@H]1[C@H](O)[C@H](O)[C@]2(C)O | inactive | inactive
15 | CC1=CC(=O)C2C(C)(C)CCC[C@]2(C)[C@H]1CC[C@H](C)CC(=O)O (stereo partly drawn) | inconclusive: 7.18 µM [cytotoxic, partial curve, poor fit] | inactive
16 | CC1(C)O[C@@H]2C[C@H]3[C@@H]4C[C@H](F)C5=CC(=O)C=C[C@]5(C)[C@@]4(F)[C@@H](O)C[C@]3(C)[C@]2(C(=O)CO)O1 | inactive and inconclusive: 16.6 µM [cytotoxic, partial curve, poor fit] | inconclusive: 2.37 µM [cytotoxic, partial curve, poor fit]
17 | CCc1nn(CCO)c(CC)c1Oc1cc(C#N)cc(C#N)c1 | inactive | inactive
18 | C=CC1C(OC2OC(CO)C(O)C(O)C2O)OC=C(C(=O)OC)C1CC(=O)OCC1C(C)C(O)CC1C(CO)COC(=O)CC1C(C(=O)O)=COC(OC2OC(CO)C(O)C(O)C2O)/C1=C\C (stereo not drawn) | inconclusive: 3.1 µM [cytotoxic, partial curve] | inconclusive: 4.91 µM [cytotoxic, single point]
19 | Fc1ccc(-c2cncc(CN3CCN(c4cccc5c4OCCO5)CC3)c2)cc1 | inconclusive: 0.0103 µM [rising, full curve] | inconclusive: 11.6 µM [cytotoxic, partial curve, poor fit]
